Measurements taken from patent US5753516A, “Screening method for ligands of the EBI-1 receptor” (priority 1995, dated 1998).

Legend:
NALM 6 cells = assay: MET-ENK-FITC binding to NALM 6 cells (flow cytometry, Scatchard); design: species or system human
Jurkat cells = assay: MET-ENK-FITC binding to Jurkat cells (flow cytometry, Scatchard); design: species or system human
[1] = listed as methionine enkephalin

SMILES: CSCC[C@H](NC(=O)[C@H](Cc1ccccc1)NC(=O)CNC(=O)CNC(=O)[C@@H](N)Cc1ccc(O)cc1)C(=O)O [MET-ENK, Tyr-Gly-Gly-Phe-Met]
- Bmax, high affinity sites (NALM 6 cells): 7.77×10^3 sites/cell
- Bmax, high affinity sites (NALM 6 cells; [1]): 7.77×10^3 sites/cell
- Bmax, high affinity sites (Jurkat cells): 9×10^2 sites/cell
- Bmax, high affinity sites (Jurkat cells; [1]): 9.0×10^2 sites/cell

Where two headings read alike, the source gives them in different places.
